Source: paper PMC4352082
Results are given in words; binding and its absence hold for the method and conditions named. Binding seen in cells or lysates may run through a third protein. Some binding calls cover weakened binding; strength is not graded here.

Chains of the proteins cited; added tags and fusions are not shown.
UniProt Q9UDY8: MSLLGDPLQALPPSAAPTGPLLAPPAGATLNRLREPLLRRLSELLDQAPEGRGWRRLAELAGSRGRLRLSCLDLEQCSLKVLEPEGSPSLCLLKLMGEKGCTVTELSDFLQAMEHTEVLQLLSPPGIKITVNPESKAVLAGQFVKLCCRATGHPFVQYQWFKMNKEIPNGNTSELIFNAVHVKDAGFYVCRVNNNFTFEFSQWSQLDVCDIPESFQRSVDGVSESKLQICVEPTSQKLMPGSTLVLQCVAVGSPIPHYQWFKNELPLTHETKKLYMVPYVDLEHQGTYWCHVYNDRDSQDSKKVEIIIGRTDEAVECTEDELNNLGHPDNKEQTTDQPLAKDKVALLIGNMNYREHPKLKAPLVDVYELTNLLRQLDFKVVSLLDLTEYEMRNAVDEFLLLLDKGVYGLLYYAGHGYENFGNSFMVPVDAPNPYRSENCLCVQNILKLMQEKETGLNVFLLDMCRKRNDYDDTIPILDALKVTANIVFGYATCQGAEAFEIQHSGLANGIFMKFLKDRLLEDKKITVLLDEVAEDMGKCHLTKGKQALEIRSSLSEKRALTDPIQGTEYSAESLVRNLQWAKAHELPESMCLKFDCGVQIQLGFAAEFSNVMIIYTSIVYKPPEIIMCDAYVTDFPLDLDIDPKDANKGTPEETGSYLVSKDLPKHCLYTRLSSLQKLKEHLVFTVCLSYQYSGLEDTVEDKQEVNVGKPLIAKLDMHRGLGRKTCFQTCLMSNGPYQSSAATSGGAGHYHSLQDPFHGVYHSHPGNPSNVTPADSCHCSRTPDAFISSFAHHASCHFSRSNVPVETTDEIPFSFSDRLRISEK

T1: IKKα (human (endogenous in platelets)) (UniProt O15111)
T1 sequence: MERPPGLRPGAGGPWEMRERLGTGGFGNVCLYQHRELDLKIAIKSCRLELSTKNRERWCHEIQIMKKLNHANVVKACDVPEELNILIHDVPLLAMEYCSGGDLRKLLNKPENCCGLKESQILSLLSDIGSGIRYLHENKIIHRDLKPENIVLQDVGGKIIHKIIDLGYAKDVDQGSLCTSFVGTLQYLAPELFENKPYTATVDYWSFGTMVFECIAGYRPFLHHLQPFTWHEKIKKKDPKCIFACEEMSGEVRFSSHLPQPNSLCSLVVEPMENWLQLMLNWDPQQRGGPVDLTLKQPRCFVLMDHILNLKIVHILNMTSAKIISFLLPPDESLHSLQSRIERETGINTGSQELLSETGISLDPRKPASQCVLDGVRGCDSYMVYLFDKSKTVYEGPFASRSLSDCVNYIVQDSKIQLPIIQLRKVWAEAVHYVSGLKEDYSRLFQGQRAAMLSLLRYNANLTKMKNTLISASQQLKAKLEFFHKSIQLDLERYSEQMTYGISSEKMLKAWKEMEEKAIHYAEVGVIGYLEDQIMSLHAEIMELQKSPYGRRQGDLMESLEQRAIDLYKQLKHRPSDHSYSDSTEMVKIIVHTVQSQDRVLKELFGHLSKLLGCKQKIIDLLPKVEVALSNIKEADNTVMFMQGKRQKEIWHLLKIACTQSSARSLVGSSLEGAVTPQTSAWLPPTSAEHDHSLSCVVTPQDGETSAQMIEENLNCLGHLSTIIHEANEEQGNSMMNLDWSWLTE


How the values were obtained:
[1] = target: MALT1 (human (endogenous in platelets)) (UniProt Q9UDY8); test: co-IP; endogenous proteins; washed human platelets stimulated with thrombin (0.025 U/mL, 3 min), lysed, precleared with rabbit IgG and Protein A-Sepharose; precipitated with antibody to the bait (anti-MALT1, anti-IKKα or anti-syntaxin-11) and Protein A-Sepharose; SDS-PAGE and immunoblot
[2] = target: MALT1 (human (endogenous in platelets)) (UniProt Q9UDY8); test: co-IP; as a1, but unstimulated platelets; precipitated with anti-MALT1; immunoblot
[3] = target: T1, IKKα (human (endogenous in platelets)); test: co-IP; endogenous proteins; washed human platelets stimulated with thrombin (0.025 U/mL, 3 min), lysed, precleared with rabbit IgG and Protein A-Sepharose; precipitated with antibody to the bait (anti-MALT1, anti-IKKα or anti-syntaxin-11) and Protein A-Sepharose; SDS-PAGE and immunoblot
[4] = target: T1, IKKα (human (endogenous in platelets)); test: condition: only platelets pretreated with MG132 (10 μM) before thrombin; co-IP; as a1, but platelets pretreated with the proteasome inhibitor MG132 (10 μM, 3 min) before thrombin (0.025 U/mL, 3 min); precipitated with anti-MALT1, anti-IKKα or anti-syntaxin-11; immunoblot

Binder	binding [1]	binding [2]	binding [3]	binding [4]
Bcl10 (protein, UniProt O95999 1-233) MEPTAPSLTEEDLTEVKKDALENLRVYLCEKIIAERHFDHLRAKKILSREDTEEISCRTSSRKRAGKLLDYLQENPKGLDTLVESIRREKTQNFLIQKITDEVLKLRNIKLEHLKGLKCSSCEPFPDGATNNLSRSNSDESNFSEKLRASTVMYHPEGESSTTPFFSTNSSLNLPVLEVGRTENTIFSSTTLPRPGDPGAPPLPPDLQLEEEGTCANSSEMFLPLRSRTVSRQ	binds	no binding (condition: unstimulated platelets)	–	–
CARMA1 (protein, UniProt Q9BXL7 1-1154) MPGGGPEMDDYMETLKDEEDALWENVECNRHMLSRYINPAKLTPYLRQCKVIDEQDEDEVLNAPMLPSKINRAGRLLDILHTKGQRGYVVFLESLEFYYPELYKLVTGKEPTRRFSTIVVEEGHEGLTHFLMNEVIKLQQQMKAKDLQRCELLARLRQLEDEKKQMTLTRVELLTFQERYYKMKEERDSYNDELVKVKDDNYNLAMRYAQLSEEKNMAVMRSRDLQLEIDQLKHRLNKMEEECKLERNQSLKLKNDIENRPKKEQVLELERENEMLKTKNQELQSIIQAGKRSLPDSDKAILDILEHDRKEALEDRQELVNRIYNLQEEARQAEELRDKYLEEKEDLELKCSTLGKDCEMYKHRMNTVMLQLEEVERERDQAFHSRDEAQTQYSQCLIEKDKYRKQIRELEEKNDEMRIEMVRREACIVNLESKLRRLSKDSNNLDQSLPRNLPVTIISQDFGDASPRTNGQEADDSSTSEESPEDSKYFLPYHPPQRRMNLKGIQLQRAKSPISLKRTSDFQAKGHEEEGTDASPSSCGSLPITNSFTKMQPPRSRSSIMSITAEPPGNDSIVRRYKEDAPHRSTVEEDNDSGGFDALDLDDDSHERYSFGPSSIHSSSSSHQSEGLDAYDLEQVNLMFRKFSLERPFRPSVTSVGHVRGPGPSVQHTTLNGDSLTSQLTLLGGNARGSFVHSVKPGSLAEKAGLREGHQLLLLEGCIRGERQSVPLDTCTKEEAHWTIQRCSGPVTLHYKVNHEGYRKLVKDMEDGLITSGDSFYIRLNLNISSQLDACTMSLKCDDVVHVRDTMYQDRHEWLCARVDPFTDHDLDMGTIPSYSRAQQLLLVKLQRLMHRGSREEVDGTHHTLRALRNTLQPEEALSTSDPRVSPRLSRASFLFGQLLQFVSRSENKYKRMNSNERVRIISGSPLGSLARSSLDATKLLTEKQEELDPESELGKNLSLIPYSLVRAFYCERRRPVLFTPTVLAKTLVQRLLNSGGAMEFTICKSDIVTRDEFLRRQKTETIIYSREKNPNAFECIAPANIEAVAAKNKHCLLEAGIGCTRDLIKSNIYPIVLFIRVCEKNIKRFRKLLPRPETEEEFLRVCRLKEKELEALPCLYATVEPDMWGSVEELLRVVKDKIGEEQRKTIWVDEDQL	binds	no binding (condition: unstimulated platelets)	–	–
IKKβ (protein, UniProt O14920 1-756) MSWSPSLTTQTCGAWEMKERLGTGGFGNVIRWHNQETGEQIAIKQCRQELSPRNRERWCLEIQIMRRLTHPNVVAARDVPEGMQNLAPNDLPLLAMEYCQGGDLRKYLNQFENCCGLREGAILTLLSDIASALRYLHENRIIHRDLKPENIVLQQGEQRLIHKIIDLGYAKELDQGSLCTSFVGTLQYLAPELLEQQKYTVTVDYWSFGTLAFECITGFRPFLPNWQPVQWHSKVRQKSEVDIVVSEDLNGTVKFSSSLPYPNNLNSVLAERLEKWLQLMLMWHPRQRGTDPTYGPNGCFKALDDILNLKLVHILNMVTGTIHTYPVTEDESLQSLKARIQQDTGIPEEDQELLQEAGLALIPDKPATQCISDGKLNEGHTLDMDLVFLFDNSKITYETQISPRPQPESVSCILQEPKRNLAFFQLRKVWGQVWHSIQTLKEDCNRLQQGQRAAMMNLLRNNSCLSKMKNSMASMSQQLKAKLDFFKTSIQIDLEKYSEQTEFGITSDKLLLAWREMEQAVELCGRENEVKLLVERMMALQTDIVDLQRSPMGRKQGGTLDDLEEQARELYRRLREKPRDQRTEGDSQEMVRLLLQAIQSFEKKVRVIYTQLSKTVVCKQKALELLPKVEEVVSLMNEDEKTVVRLQEKRQKELWNLLKIACSKVRGPVSGSPDSMNASRLSQPGQLMSQPSTASNSLPEPAKKSEELVAEAHNLCTLLENAIQDTVREQDQSFTALDWSWLQTEEEEHSCLEQAS	–	–	binds	no binding
